Tests used:
Experiment in all cases: cell-based or functional assay
human wild-type CD117 = human wild-type CD117 (human, UniProt P10721 26-976)
[1] = target: human CD117 variant E73K on cells (human, UniProt P10721 26-976)
[2] = target: human CD117 variant E73Y on cells (human, UniProt P10721 26-976)
[3] = target: human CD117 variant D121K on cells (human, UniProt P10721 26-976)
[4] = target: human CD117 variant S123K on cells (human, UniProt P10721 26-976)
[5] = target: human CD117 variant S123F on cells (human, UniProt P10721 26-976)

EC50 [ng/ml] of SCF, SCF-dependent proliferation of TF-1 cells (CellTiter-Glo), Average (human wild-type CD117): 4.18 ng/mL
EC50 [ng/ml] of SCF, SCF-dependent proliferation of TF-1 cells (CellTiter-Glo), Experiment #1 (human wild-type CD117): 4.14 ng/mL
EC50 [ng/ml] of SCF, SCF-dependent proliferation of TF-1 cells (CellTiter-Glo), Experiment #2 (human wild-type CD117): 4.22 ng/mL
EC50 [ng/ml] of SCF, SCF-dependent proliferation of TF-1 cells (CellTiter-Glo), Average [1]: 3.58 ng/mL
EC50 [ng/ml] of SCF, SCF-dependent proliferation of TF-1 cells (CellTiter-Glo), Experiment #1 [1]: 3.73 ng/mL
EC50 [ng/ml] of SCF, SCF-dependent proliferation of TF-1 cells (CellTiter-Glo), Experiment #2 [1]: 3.42 ng/mL
EC50 [ng/ml] of SCF, SCF-dependent proliferation of TF-1 cells (CellTiter-Glo), Average [2]: 4.01 ng/mL
EC50 [ng/ml] of SCF, SCF-dependent proliferation of TF-1 cells (CellTiter-Glo), Experiment #1 [2]: 4.37 ng/mL
EC50 [ng/ml] of SCF, SCF-dependent proliferation of TF-1 cells (CellTiter-Glo), Experiment #2 [2]: 3.64 ng/mL
EC50 [ng/ml] of SCF, SCF-dependent proliferation of TF-1 cells (CellTiter-Glo), Average [3]: 3.7 ng/mL
EC50 [ng/ml] of SCF, SCF-dependent proliferation of TF-1 cells (CellTiter-Glo), Experiment #1 [3]: 4.15 ng/mL
EC50 [ng/ml] of SCF, SCF-dependent proliferation of TF-1 cells (CellTiter-Glo), Experiment #2 [3]: 3.25 ng/mL
EC50 [ng/ml] of SCF, SCF-dependent proliferation of TF-1 cells (CellTiter-Glo), Average [4]: 3.54 ng/mL
EC50 [ng/ml] of SCF, SCF-dependent proliferation of TF-1 cells (CellTiter-Glo), Experiment #1 [4]: 3.76 ng/mL
EC50 [ng/ml] of SCF, SCF-dependent proliferation of TF-1 cells (CellTiter-Glo), Experiment #2 [4]: 3.31 ng/mL
EC50 [ng/ml] of SCF, SCF-dependent proliferation of TF-1 cells (CellTiter-Glo), Average [5]: 3.82 ng/mL
EC50 [ng/ml] of SCF, SCF-dependent proliferation of TF-1 cells (CellTiter-Glo), Experiment #1 [5]: 4.01 ng/mL
EC50 [ng/ml] of SCF, SCF-dependent proliferation of TF-1 cells (CellTiter-Glo), Experiment #2 [5]: 3.63 ng/mL
B1: recombinant human SCF (ligand)
chain: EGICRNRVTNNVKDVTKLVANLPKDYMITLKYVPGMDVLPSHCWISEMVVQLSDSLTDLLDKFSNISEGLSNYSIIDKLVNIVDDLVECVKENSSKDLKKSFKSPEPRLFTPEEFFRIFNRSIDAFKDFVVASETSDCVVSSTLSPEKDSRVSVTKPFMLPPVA

— US20250057951A1 (UNIVERSIT T BASEL, published 2025)
